Measurements taken from PubChem BioAssay AID485364 (National Center for Advancing Translational Sciences (NCATS), 2010).
In all, about 360,000 compounds went through this assay and about 11,000 (3.1%) were called active. Inconclusive means that the source gave no clear call. Such entries were picked first, then a sample of the others. Calls follow the shape of the dose curve; as a rule, active = well fitted inhibition curve with a large enough effect; inconclusive = small, poorly fitted or top-dose-only effect; inactive = no such curve, though single readings can be large or run the other way. No potency is given beside an inconclusive call; the fits are too rough.

What follows are molecules tested against Schistosoma mansoni thioredoxin glutathione reductase (TGR) (UniProt Q962Y6) (assay: qHTS Assay for the Inhibitors of Schistosoma Mansoni Peroxiredoxins). Conditions: purified TGR, DTNB reduction, TNB absorbance 405 nm; activity change, negative = inhibition: at 114 µM (top of the series) unless noted.
How it was run: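 First, TGR (20 nM dispensed) and NADPH were mixed with compound. Second, a 15 min room-temperature incubation followed. Third, further NADPH and then DTNB were added to start the reaction. Finally, TNB absorbance was monitored kinetically.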
% is scaled to controls: 0 for no effect and ±100 for the full control effect; potency is read from the fitted curve at half-maximal effect; tags tell the direction and shape of the fitted curve.
Also: nearly all actives have a fitted effect of over 60% in size.

Structure (SMILES)	Potency	activity change, negative = inhibition
O=C(c1ccc(Cn2cc(Cl)cn2)o1)N1CCN(Cc2ccc3c(c2)OCO3)CC1	inconclusive [inhibitor, partial curve]	
N#Cc1c(SCc2ccccc2)sc(C(=O)c2ccccc2)c1N	inconclusive [inhibitor, full curve]	
O=C(CCNc1ccc(F)cc1)c1cc2ccccc2o1	active: 0.316 µM	
COc1ccccc1/C=C/C(=O)c1c2c(c(C)[nH]c1=O)CCCC2	active: 44.7 µM	
CCc1nnc(NC(=O)c2cccc(S(=O)(=O)N3CCCC3)c2)s1	inconclusive [inhibitor, partial curve]	
CC(=O)NCCNC(=O)CCCn1c(=O)[nH]c2ccsc2c1=O		inactive: 3.94%
CN(CC(N)=O)S(=O)(=O)c1ccc(F)cc1		inactive: 0.355%
O=c1cc(CN2CCN(c3ccccc3F)CC2)c2cc3c(cc2o1)CCCC3	inconclusive [inhibitor, partial curve]	
Cc1ccc2nc(NC(=O)CSc3[nH]c(=O)ncc3C)sc2c1		inactive: -5.67%
CC(C)(C)c1ccc(Oc2ccc(NC(=O)c3ccccc3C(=O)O)cn2)cc1	inconclusive [inhibitor, partial curve, poor fit]	
CC1(C)CC(=O)C(=CN2CCN(C(=O)c3ccco3)CC2)C(=O)C1	inconclusive [inhibitor, partial curve]	
C=CCN=c1scc(C)n1/N=C/c1ccc(O)c(O)c1	inconclusive [inhibitor, full curve]	
Cn1cnnc1SCC(=O)Nc1ccc2c(c1)CCC2		inactive: 12.8%
Cc1cc(Cl)ccc1OCC(=O)N[C@@H](Cc1ccccc1)c1nc2ccccc2[nH]1		inactive: -1.65%
N#Cc1ccc(C23CC4(C2)[C@H](CN(Cc2cccnc2)[C@@H]4c2ccccc2)C3c2ccccc2)cc1 (some centres undefined)	inconclusive [inhibitor, partial curve]	
CC(C)C(=O)Nc1ccc(C(=O)CSc2nnc(C3CC3)n2C2CC2)cc1	inconclusive [inhibitor, partial curve]	
COc1ccc(NC(=O)c2cc(-c3cc(C)c(C)cc3O)n[nH]2)c(OC)c1		inactive: 1.76%
CCOC(=O)c1c(C#N)c(SCC(=O)Nc2ccc(OC)cc2)nc2c1CN(CC)CC2	inconclusive [inhibitor, partial curve, poor fit]	
COc1ccccc1-c1cc(-c2ccccc2)nc(SC(C(N)=O)c2ccccc2)c1C#N (centres undefined)		inactive: 9.12%
O=C(CSc1nnc(-c2cccnc2)n1Cc1ccco1)c1ccc(Br)cc1	inconclusive [inhibitor, partial curve]	
CCOc1ccccc1CN1CCNC(=O)C1CC(=O)N(C)Cc1nonc1C (centres undefined)	inconclusive [inhibitor, partial curve]	
COc1ccccc1CNC(=O)C1CCN(S(=O)(=O)c2ccc3nc4c(c(C(=O)O)c3c2)CCCC4)CC1		inactive: -17.9%
CCOc1ccc(C(=O)N(Cc2ccc(C(C)C)cc2)Cc2ccco2)cc1		inactive: -1.21%
COc1ccc(NC(=S)NC(=O)c2ccc(Br)o2)cc1	active: 8.91 µM	
CCOc1ccccc1CN1CCN(Cc2ccc3cc(F)ccc3n2)CC1CCO (centres undefined)	active: 35.5 µM	

Structure (SMILES)	Potency	activity change, negative = inhibition
N#C/C(=C\c1ccc(-c2ccccc2[N+](=O)[O-])o1)C(N)=O	inconclusive [inhibitor, partial curve]	
CCC(=O)N1CCc2cc(Br)cc(S(=O)(=O)CCC(=O)Nc3cccc(Cl)c3)c21	inconclusive [inhibitor, full curve]	
CCn1c(OC)nc2c1c(=O)n(C)c(=O)n2C		inactive: 9.03%
Cc1ccccc1NC(=O)Cc1nc(COC(=O)c2ccc(S(C)(=O)=O)c([N+](=O)[O-])c2)cs1	active: 2.82 µM	
O=C1CC(c2ccccc2)c2cc(O)ccc2O1 (centres undefined)	active: 22.4 µM	
CCOC(=O)C1=C2NC(=O)c3ccccc3N2C(=O)C1	inconclusive [inhibitor, full curve]	
Cc1ccc(N2C(=O)NC(=O)/C(=C/c3cnn(-c4ccc(C)cc4)c3)C2=O)cc1		inactive: -24%
CC1CCCN(C(=O)CN2CCN(C(=O)c3ccco3)CC2)C1 (centres undefined)	inconclusive [inhibitor, partial curve]	
O=S(=O)(c1ccccc1Cl)N1CCC(O)(c2ccc3c(c2)OCO3)CC1		inactive: -9.4%
COc1cccc(CC(=O)N[C@@H](CCSC)c2nc3ccccc3[nH]2)c1	inconclusive [inhibitor, full curve, poor fit]	
O=C(NCc1cccnc1)c1ccc(CS(=O)(=O)Cc2ccc(Cl)cc2)o1	inconclusive [inhibitor, partial curve]	
CCN(CC)C1=N/C(=C\c2ccco2)C(=O)N1c1ccccc1	active: 44.7 µM	
CCOc1ccc(NCc2cccn2-c2nnc(N3CCC(C(=O)NCc4ccccc4Cl)CC3)s2)cc1	inconclusive [inhibitor, single point]	
Cc1ccc2nc(Nc3ccc(C)c(C)c3)c3nncn3c2c1		inactive: -7.24%
COc1ccc(OC)c(NC(=O)c2oc(=O)c3ccccc3c2-c2ccccc2)c1	inconclusive [inhibitor, single point]	
Cc1occc1C(=O)NCc1cccc(CNC(=O)c2ccoc2C)c1	active: 39.8 µM	
CCN1C(C(=O)c2ccccc2)=C(OC(=O)COc2ccc(C)cc2)c2ccccc2S1(=O)=O	active: 10 µM	
O=c1cc(-c2cc3ccccc3o2)c2cc(O)ccc2o1	inconclusive [inhibitor, partial curve, poor fit]	
Cc1onc(C(=O)NC(C)c2ccccc2)c1[N+](=O)[O-] (centres undefined)	inconclusive [inhibitor, partial curve]	
Cc1nc2ccc(C(=O)c3ccccc3)cc2[nH]1		inactive: 0.12%
Cc1cc(NC(=O)CN2CCc3ccccc3C2)nc2c1c(=O)oc1ccccc12	inconclusive [inhibitor, full curve]	
CC(C)NC(=S)NN=C1c2ccccc2-c2ccccc21		inactive: -17.2%
CCc1nnc(NC(=O)CSc2sc3c(O)cc(=O)[nH]c3c2C#N)s1	active: 35.5 µM	
CCCC(=O)Nc1cccc(OCc2cc(=O)n3cccc(C)c3n2)c1		inactive: 3.69%
N#Cc1ccccc1N1CCN(C(=O)c2ccc(NC(=O)c3ccc(Br)o3)cc2)CC1	active: 28.2 µM	

Structure (SMILES)	Potency	activity change, negative = inhibition
O=C(O)C1Cc2ccccc2CN1S(=O)(=O)c1ccc2ccccc2c1 (centres undefined)	inconclusive [inhibitor, full curve, poor fit]	
CCc1cc(=O)oc2cc(C)c(CN3CCCC(C)C3)c(O)c12 (centres undefined)	inconclusive [inhibitor, partial curve]	
COc1cccc(NC(=O)CCN2C(=O)c3ccccc3Sc3ncccc32)c1	inconclusive [inhibitor, partial curve]	
O=C(Nc1cc(Br)c(O)c(Br)c1)c1cccc(NC(=O)c2ccco2)c1	inconclusive [inhibitor, partial curve]	
CCOC(=O)COc1cc(N)c(Cl)cc1Cl		inactive: 4.39%
CC(=O)Nc1cc(C(=O)O)ccc1S(=O)(=O)c1ccc(Cl)cc1	inconclusive [inhibitor, partial curve]	
CCCn1c(N)c(C(=O)CSc2nc3ccccc3n2CCC#N)c(=O)n(C)c1=O		inactive: 2.3%
Cc1cc(NC(=O)c2sc3ccccc3c2O)no1		inactive: -22.6%
O=C(Nc1ncc2c(n1)-c1ccccc1CC2)c1ccc(F)cc1		inactive: 0%
CCC(=O)O[C@@H]1CC(=O)O[C@H](C)CC=CC=C[C@@H](O)[C@H](C)C[C@H](CC=O)[C@H](O[C@H]2O[C@H](C)[C@@H](O[C@H]3C[C@@](C)(O)[C@@H](OC(=O)CC)[C@H](C)O3)[C@H](N(C)C)[C@H]2O)[C@H]1OC	active: 25.1 µM	
O=C(COC(=O)Cc1ccc(Cl)c(Cl)c1)Nc1ccc2[nH]c(=O)[nH]c2c1		inactive: 1.31%
O=C(N/N=C/c1ccc([N+](=O)[O-])o1)C(=O)Nc1ccc(C(=O)O)cc1	inconclusive [inhibitor, full curve]	
COc1ccc(NC(=O)c2oc3ccccc3c2NC(=O)c2cc(=O)c3cc(Cl)ccc3o2)cc1		inactive: -2.04%
COc1cc(C2C3C(=O)N(c4ccccc4)C(=O)C3ON2c2ccccc2)cc(OC)c1OC (centres undefined)	inconclusive [inhibitor, partial curve]	
COc1ccc(-n2c(=S)[nH]c3cc(C(=O)N4CCN(c5ccccc5)CC4)ccc3c2=O)cc1	inconclusive [inhibitor, single point]	
O=C(/C=C/c1ccccc1)c1cc(Br)ccc(=O)c1O	active: 3.16 µM	
CC(C)NC(=O)c1onc(CSc2ccc(Cl)cc2)c1C(=O)NC(C)C		inactive: 17.4%
CC1Sc2ccc(C(=O)OCc3ccccc3Cl)cc2NC1=O (centres undefined)		inactive: 0.225%
Cc1ccc(C)c(NC(=S)N2CCN(Cc3ccccc3)CC2)c1		inactive: 6.2%
COc1ccc(C(=O)C(CCC(CNC(C)(C)C)C(=O)c2ccc(OC)cc2)CNC(C)(C)C)cc1 (centres undefined)	inconclusive [inhibitor, partial curve]	
Cc1ccc(C(=O)CSc2nnc(C)s2)cc1		inactive: 3.39%
COCc1nc2ccccc2n1Cc1ccc(C(C)(C)C)cc1	inconclusive [inhibitor, single point]	
Cc1oc(-c2ccccc2Cl)nc1CS(=O)CC(=O)NCCCN1CC(C)CC(C)C1 (centres undefined)		inactive: -12.7%
Cc1ccc(Sc2ccc(NC(=O)CCl)cc2)c(C)c1	inconclusive [inhibitor, partial curve]	
